{"source": "PubChem BioAssay AID743255", "about": "(National Center for Advancing Translational Sciences (NCATS), 2014)", "note": "The campaign covered roughly 390,000 compounds. About 910 (0.23%) were called active. About 5% were inconclusive and are not listed. Calls come from the whole dose curve; as a rule, active = well fitted inhibition curve with a large enough effect; inconclusive = small, poorly fitted or top-dose-only effect; inactive = no such curve, though single readings can be large or run the other way. This is a selection; strong and weak results do not stand in their true shares. % is set by controls: 0 for no effect and ±100 for the full control effect; potency is the fitted concentration of half-maximal effect."}
{"target": "Ubiquitin carboxyl-terminal hydrolase 1 (Homo sapiens) (UniProt O94782)", "sequence (O94782 whole entry, looked up)": "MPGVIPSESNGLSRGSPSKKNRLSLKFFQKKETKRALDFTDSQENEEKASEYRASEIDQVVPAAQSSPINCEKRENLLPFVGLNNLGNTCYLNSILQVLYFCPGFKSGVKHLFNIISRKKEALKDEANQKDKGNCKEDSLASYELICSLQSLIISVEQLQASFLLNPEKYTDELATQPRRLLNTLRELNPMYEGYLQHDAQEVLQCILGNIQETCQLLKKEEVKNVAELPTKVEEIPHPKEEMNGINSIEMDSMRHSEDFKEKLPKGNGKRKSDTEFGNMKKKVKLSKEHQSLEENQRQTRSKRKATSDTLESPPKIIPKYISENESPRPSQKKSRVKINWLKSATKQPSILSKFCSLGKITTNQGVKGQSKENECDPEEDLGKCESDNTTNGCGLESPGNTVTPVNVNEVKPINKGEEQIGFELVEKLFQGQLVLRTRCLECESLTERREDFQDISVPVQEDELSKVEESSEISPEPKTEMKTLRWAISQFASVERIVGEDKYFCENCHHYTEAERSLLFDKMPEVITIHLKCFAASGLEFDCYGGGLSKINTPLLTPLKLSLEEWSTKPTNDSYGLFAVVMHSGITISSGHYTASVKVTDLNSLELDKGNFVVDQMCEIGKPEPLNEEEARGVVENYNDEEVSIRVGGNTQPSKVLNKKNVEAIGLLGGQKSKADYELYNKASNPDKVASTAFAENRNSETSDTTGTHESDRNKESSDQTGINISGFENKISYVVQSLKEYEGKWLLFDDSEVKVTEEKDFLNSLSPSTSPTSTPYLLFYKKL", "test": "Inhibitors of USP1/UAF1: Primary Screen; note: nearly all actives have a fitted effect of over 60% in size", "conditions": "recombinant USP1/UAF1, Ub-Rhodamine cleavage fluorescence; activity change, negative = inhibition: at 57.1 µM (top of the series)", "in_short": "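USP1/UAF1 complex at 1 nM was preincubated with compound for 15 min at room temperature, then Ub-Rho substrate (150nM final) was added. Fluorescence (480/540 nm) was read kinetically, 6 reads every 60 seconds.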"}
{"molecule": "C[C@H](CO)N1C[C@H](C)[C@@H](CN(C)S(=O)(=O)c2ccccc2F)OCc2cnnn2CCCC1=O", "activity change, negative = inhibition": "inactive: 8.6%"}
{"molecule": "O=C(C[C@H]1C/C=C\\C[C@H](NC(=O)OCC2c3ccccc3-c3ccccc32)C(=O)OC[C@H]2CCCN2C1=O)NCCO", "activity change, negative = inhibition": "inactive: 7.65%"}
{"molecule": "Cc1ccc(CNC(=O)Cn2cccc2C(=O)c2ccccc2C)cc1", "activity change, negative = inhibition": "inactive: -26.1%"}
{"molecule": "COc1ccc(/C=C2/C(=O)N(CC3CCCO3)C(=S)N2C)c(OC)c1", "note": "(stereo not given)", "activity change, negative = inhibition": "inactive: 56.1%"}
{"molecule": "Cc1ccc([C@H]2C[C@@H](O)[C@H](n3cc(C4CC4)nn3)CN2Cc2cccs2)cc1", "activity change, negative = inhibition": "inactive: -9.76%"}
{"molecule": "C=CC[C@@H](CC(=O)N[C@H](CO)Cc1ccccc1)C(=O)N[C@@H](COC(=O)[C@@H](CC=C)CC(=O)OC(C)(C)C)Cc1ccccc1", "activity change, negative = inhibition": "inactive: -9.26%"}
{"molecule": "NCCCC[C@@H]1NC(=O)[C@H](CCC(=O)O)NC(=O)c2cc([N+](=O)[O-])cc(I)c2OCC[C@@H](C(N)=O)NC1=O", "activity change, negative = inhibition": "inactive: -10.8%"}
{"molecule": "Nc1c2ccccc2nc2ccccc12", "activity change, negative = inhibition": "inactive: 5.74%"}
{"molecule": "O=C1Cc2ccccc2C(=O)N1Cc1ccccc1", "Potency": "active: 3.16 µM"}
{"molecule": "N[C@@H](Cc1cc(I)c(Oc2ccc(O)c(I)c2)c(I)c1)C(=O)O", "activity change, negative = inhibition": "inactive: 12%"}
{"molecule": "COc1ccc(Cn2cc3c(-c4ccc(F)cc4)nnc-3c3cc(OC)c(OC)cc32)cc1", "activity change, negative = inhibition": "inactive: 114%"}
{"molecule": "Cn1nc(C(F)(F)F)cc1-c1ccc(/C=C(\\C#N)C(=O)c2ccccc2)s1", "activity change, negative = inhibition": "inactive: 44.2%"}
{"molecule": "COCCCNC(=O)CCCn1c(SCC(=O)c2ccc(Br)cc2)nc2c(sc3ccccc32)c1=O", "activity change, negative = inhibition": "inactive: 27%"}
{"molecule": "O=C1N[C@@H](Cc2ccccc2)C(=O)N2[C@@H]3N(S(=O)(=O)c4ccc(F)cc4)c4ccccc4[C@]3(Br)C[C@@H]12", "activity change, negative = inhibition": "inactive: 21.5%"}
{"molecule": "CCO[C@@H]1OC(C(N)=O)=C[C@H](C2CC2)[C@H]1CCCO", "activity change, negative = inhibition": "inactive: -22.6%"}
{"molecule": "COc1ccc(S(=O)(=O)N(C)C[C@H]2OCc3cnnn3CCCC(=O)N([C@H](C)CO)C[C@H]2C)cc1", "activity change, negative = inhibition": "inactive: 7.19%"}
{"molecule": "O=C(c1cccs1)N1C[C@@H](n2cc(-c3ccc(F)cc3)nn2)[C@H](O)C[C@@H]1c1ccc(Cl)cc1", "activity change, negative = inhibition": "inactive: -25.5%"}
{"molecule": "COc1ccc(CC(=O)Nc2c(C(=O)N3CCN(c4ccccc4)CC3)oc3ccccc23)cc1OC", "activity change, negative = inhibition": "inactive: -26.4%"}
{"molecule": "C[C@@H]1CN([C@H](C)CO)C(=O)CCCn2nncc2CO[C@H]1CN(C)C(=O)C1CCCCC1", "activity change, negative = inhibition": "inactive: -14.2%"}
{"molecule": "COCCCNc1c2c3c(cccc3[nH]c1=O)C(=O)c1ccccc1-2", "Potency": "active: 4.47 µM"}
{"molecule": "C[C@H](CO)N1C[C@H](C)[C@H](CN(C)S(=O)(=O)c2ccc3c(c2)OCCCO3)OCc2cnnn2CCCC1=O", "activity change, negative = inhibition": "inactive: -0.395%"}
{"molecule": "C[C@H](CO)N1C[C@H](C)[C@@H](CN(C)Cc2ccc(C(=O)O)cc2)OCc2cnnn2CCCC1=O", "activity change, negative = inhibition": "inactive: 1.38%"}
{"molecule": "COC1=CC(=O)c2ccccc2C1=O", "Potency": "active: 12.6 µM"}
{"molecule": "CC(C)(C)OC(=O)C[C@H]1C/C=C\\C[C@@H](CC(=O)N[C@H](CO)Cc2ccccc2)C(=O)NCCOC1=O", "activity change, negative = inhibition": "inactive: -22.9%"}
{"molecule": "O=C(OCCNc1ccc(C(F)(F)F)cc1[N+](=O)[O-])c1cc2ccccc2oc1=O", "activity change, negative = inhibition": "inactive: 116%"}
{"molecule": "C=CC[C@@H](CC(=O)N(CCO)Cc1ccccc1)C(=O)N[C@H](COC(=O)[C@@H](CC=C)Cc1ccc(F)cc1)C(C)(C)C", "activity change, negative = inhibition": "inactive: -8.3%"}
{"molecule": "COc1ccc(C(=O)Nc2ccc(NC(=O)c3cccs3)cc2)cc1OC", "Potency": "active: 25.1 µM"}
{"molecule": "O=C(O)c1ccc(NC2=C/C(=N/S(=O)(=O)c3cccs3)c3ccccc3C2=O)cc1", "Potency": "active: 5.01 µM"}
{"molecule": "Cc1c(C(=O)N(Cc2ccc(N(C)C)cc2)CC2CCCO2)oc2ccccc12", "note": "(stereo not given)", "activity change, negative = inhibition": "inactive: -5.46%"}
{"molecule": "O=C(O)c1cccc(NC2=C(n3nnc4ccccc43)C(=O)c3ccccc3C2=O)c1", "Potency": "active: 28.2 µM"}
{"molecule": "COC(C[C@@H]1O[C@@H]1[C@@H](O)[C@H](C)OCc1ccccc1)OC", "activity change, negative = inhibition": "inactive: -28.1%"}
{"molecule": "O=C(C1=C[C@H](c2ccccc2)C[C@H](OCc2ccc(CO)cc2)O1)N1CCN(Cc2ccc3c(c2)OCO3)CC1", "activity change, negative = inhibition": "inactive: -23.4%"}
{"molecule": "CCOc1ccc2nc3cc(N=Nc4ccc(N)nc4N)ccc3c(N)c2c1", "Potency": "active: 15.8 µM"}
{"molecule": "COc1ccc(N2CCN(C(=O)c3ccc4c(c3)CCN4S(=O)(=O)c3ccccc3)CC2)cc1", "activity change, negative = inhibition": "inactive: -14.9%"}
{"molecule": "O=C(CCCN1C(=O)/C(=C\\c2ccccc2)SC1=S)Nc1ccccc1O", "activity change, negative = inhibition": "inactive: -10.5%"}
{"molecule": "CN1CCc2c(sc3c2C(=O)NC(c2ccccn2)N3)C1", "note": "(stereo not given)", "Potency": "active: 31.6 µM"}
{"molecule": "C=CC[C@@H](CC(=O)N(CCO)Cc1ccccc1)C(=O)N[C@H](COC(=O)[C@@H](CC=C)CC(=O)OC(C)(C)C)Cc1c[nH]c2ccccc12", "activity change, negative = inhibition": "inactive: -26.3%"}
{"molecule": "Nc1ccc(N)c(C(=O)O)c1", "Potency": "active: 20 µM"}
{"molecule": "COc1ccc(OC)c(NC(=O)CCNS(=O)(=O)c2cccc3nsnc23)c1", "activity change, negative = inhibition": "inactive: -25.9%"}
{"molecule": "Nc1ncnc2c1ncn2C1OC(COP(=O)(O)O)C(O)C1O", "note": "(stereo not given)", "activity change, negative = inhibition": "inactive: -11.1%"}
{"molecule": "OCC[C@@H]1C[C@@H](O)[C@H](O)[C@]2(OCc3ccccc32)O1", "activity change, negative = inhibition": "inactive: -12.9%"}
{"molecule": "CCOc1cc(Br)c(/C=C2/C(=O)N(C)C(=S)N2CC(=O)OC)cc1OC", "activity change, negative = inhibition": "inactive: 93.5%"}
{"molecule": "C[C@H](O)CNC(=O)c1[nH]cnc1C(=O)Nc1cccc(Cl)c1", "activity change, negative = inhibition": "inactive: -19.2%"}
{"molecule": "OCC[C@@H]1C[C@H](O)[C@@H](O)[C@@]2(CCCCO2)O1", "activity change, negative = inhibition": "inactive: -14%"}
{"molecule": "O=C(Nc1nnc(SCc2ccccn2)s1)C1CC(=O)N(c2ccc(F)cc2)C1", "note": "(stereo not given)", "activity change, negative = inhibition": "inactive: 106%"}
{"molecule": "O=C(NCc1ccccc1)C1=C[C@@H](C2CC2)C[C@@H](OCc2ccc(CO)cc2)O1", "activity change, negative = inhibition": "inactive: -13.4%"}
{"molecule": "C/C=C(\\C)C(=O)NCCN1C2=NC[C@H](C)N2C[C@@H]1Cc1ccc(OC)cc1", "activity change, negative = inhibition": "inactive: -19%"}
{"molecule": "CC1(C)S[C@@H]2[C@H](NC(=O)[C@H](N)c3ccccc3)C(=O)N2[C@H]1C(=O)O", "activity change, negative = inhibition": "inactive: -29.1%"}
{"molecule": "COc1cc(/C=C/c2sc3ccccc3[n+]2CCCS(=O)(=O)[O-])ccc1O", "Potency": "active: 25.1 µM"}
{"molecule": "O=C(C[C@H]1C/C=C/CC[C@H](Cc2ccc(F)cc2)C(=O)O[C@H](c2ccccc2)CNC1=O)NCCO", "activity change, negative = inhibition": "inactive: -13.3%"}
{"molecule": "C=CCOc1ccc(C2C(C(=O)c3cccs3)=C(O)C(=O)N2c2nnc(C)s2)cc1", "note": "(stereo not given)", "activity change, negative = inhibition": "inactive: 47.9%"}
{"molecule": "COc1cccc(Nc2nnc(-c3cc4ccc(O)cc4oc3=O)s2)c1", "activity change, negative = inhibition": "inactive: 144%"}
{"molecule": "Cc1ccc(NC(=O)CC2Oc3ccc(C)cc3NC2=O)c(C)c1", "note": "(stereo not given)", "activity change, negative = inhibition": "inactive: -1.9%"}
{"molecule": "OCC[C@@H]1C[C@H](O)[C@@H](O)[C@]2(CCCc3ccccc3O2)O1", "activity change, negative = inhibition": "inactive: -15.5%"}
{"molecule": "N#Cc1c(N2CCCC2)nc(N)c2c(N)nc(N3CCCC3)cc12", "Potency": "active: 0.316 µM"}
